From the supplement of paper PMC9446081
The whole screen tested about 39,000 compounds, of which about 220 (0.56%) showed activity. Some of the results follow.

These molecules were tested on Escherichia coli K-12 BW25113 (assay: relative growth (OD600 normalised to plate interquartile mean) (fraction); higher = less growth inhibition, active = 0.2 or less). Conditions: 50 µM; LB; incubation time: overnight (16-24 h).
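Further: static incubation at 37 °C against the wild-type strain, values averaged over two biological replicates.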

| SMILES | relative growth |
| --- | --- |
| CC(C)NC(=O)N(C)C[C@@H]1Oc2c(NS(=O)(=O)c3ccccc3)cccc2C(=O)N([C@@H](C)CO)C[C@@H]1C | inactive: 1.03 |
| C[C@@H]1CCCCO[C@@H](CN(C)C(=O)Nc2ccc(F)cc2)[C@H](C)CN([C@@H](C)CO)C(=O)c2cc(NC(=O)NC3CCCCC3)ccc2O1 | inactive: 1 |
| COCC#Cc1ccc2c(c1)O[C@@H](CN(C)C(=O)c1ccccc1F)[C@H](C)CN([C@@H](C)CO)S2(=O)=O | inactive: 0.983 |
| O=C(NCO)c1ccc([N+](=O)[O-])cc1 | inactive: 1.02 |
| C[C@@H]1CN([C@@H](C)CO)C(=O)Cc2cc(NS(=O)(=O)c3ccc(Cl)cc3)ccc2O[C@H]1CN(C)Cc1ccc(Oc2ccccc2)cc1 | inactive: 0.986 |
| Cc1c(O)c(=O)ccn1C | inactive: 0.985 |
| COc1cccc(S(=O)(=O)Nc2ccc3c(c2)[C@H]2C[C@H](CC(=O)NCc4ccccc4F)O[C@H](CO)[C@H]2O3)c1 | inactive: 1.01 |
| Cn1cnc(S(=O)(=O)N2C[C@H](O)COC[C@H]3O[C@@H](CC(=O)NCc4ccc(F)cc4)CC[C@@H]32)c1 | inactive: 0.976 |
| C[C@H](O)C#Cc1cnc2c(c1)C(=O)N([C@@H](C)CO)C[C@@H](C)[C@@H](CN(C)C(=O)Nc1ccc(C(F)(F)F)cc1)O2 | inactive: 0.997 |
| Cc1noc(C)c1NC(=O)N(C)C[C@@H]1Oc2ccc(NC(=O)Cn3cnnn3)cc2C(=O)N([C@H](C)CO)C[C@H]1C | inactive: 1.01 |
| Cn1cnc(S(=O)(=O)N[C@H]2CC[C@@H](CC(=O)N3CCN(c4ccccc4)CC3)O[C@H]2CO)c1 | inactive: 0.997 |
| C[C@H]1CN([C@@H](C)CO)C(=O)Cc2cc(NC(=O)Nc3ccc(C(F)(F)F)cc3)ccc2O[C@H]1CN(C)C(=O)NC1CCCCC1 | inactive: 1.03 |
| C[C@@H]1CN([C@H](C)CO)C(=O)Cc2cc(N(C)C)ccc2O[C@H]1CN(C)S(=O)(=O)c1ccc(Cl)cc1 | inactive: 0.998 |
| C[C@@H]1CN([C@@H](C)CO)C(=O)Cc2cc(NC(=O)Nc3ccc(C(F)(F)F)cc3)ccc2O[C@H]1CN(C)S(=O)(=O)c1ccc(Cl)cc1 | inactive: 1.01 |
| COc1ccc2c3c(n(c2c1)C)[C@@H](CO)N(C[C@]13CN(C1)C(=O)C1CC1)C(=O)CN1CCOCC1 | inactive: 0.993 |
| C[C@@H]1CN([C@H](C)CO)C(=O)c2cc(NS(=O)(=O)c3ccccc3)ccc2O[C@@H](C)CCCCO[C@H]1CN(C)C(=O)Nc1ccc(F)cc1 | inactive: 1 |
| C[C@@H]1CN([C@@H](C)CO)C(=O)c2cc(C#C[C@@H](C)O)cnc2O[C@H]1CN(C)Cc1cncnc1 | inactive: 0.996 |
| Cc1ccc(-c2cnc3c(c2)C(=O)N([C@@H](C)CO)C[C@@H](C)[C@H](CN(C)C(=O)Cc2ccncc2)O3)cc1 | inactive: 0.996 |
| O=C(N[C@@H](c1cccnc1)c1ccc2c(c1)OCO2)C1CCN(CCOc2ccc(Cl)cc2Cl)CC1 | inactive: 0.975 |
| Cc1noc(C)c1NC(=O)Nc1ccc2c(c1)C(=O)N([C@@H](C)CO)C[C@@H](C)[C@H](CN(C)Cc1ccc3c(c1)OCO3)OCCCC[C@H](C)O2 | inactive: 1.02 |

| SMILES | relative growth |
| --- | --- |
| COc1ccc(NC(=O)N(C)C[C@@H]2Oc3ncc(C#CCN(C)C)cc3C(=O)N([C@H](C)CO)C[C@H]2C)cc1 | inactive: 0.977 |
| Cc1ccc2sc(C(=O)O)cc2c1 | inactive: 0.985 |
| COc1ccc([Si](C)(C)[C@H]2[C@H](CCO)O[C@@]3(C(=O)N(Cc4ccccc4)c4ccc(N(C=O)c5ccccc5)cc43)[C@@H]2C)cc1 | inactive: 1.03 |
| C/C=C/c1ccc2c(c1)O[C@H](CN(C)Cc1ccc(C(=O)O)cc1)[C@H](C)CN([C@@H](C)CO)S2(=O)=O | inactive: 0.998 |
| CCCC(=O)Nc1ccc2c(c1)OC[C@H](C)N(Cc1ccc(-c3ccccn3)cc1)C[C@@H](C)[C@H](OC)CN(C)C2=O | inactive: 0.999 |
| C[C@@H]1CN([C@@H](C)CO)C(=O)c2cc(NC(=O)CCN3CCOCC3)ccc2O[C@@H]1CN(C)S(=O)(=O)c1cccs1 | inactive: 1 |
| C[C@@H]1CN([C@@H](C)CO)C(=O)c2cc(NC(=O)Nc3ccc4c(c3)OCO4)ccc2O[C@H]1CN(C)Cc1ccc(C(=O)Nc2ccccc2N)cc1 | inactive: 1.02 |
| Cc1noc(C)c1NC(=O)N(C)C[C@@H]1Oc2ccc(NC(=O)CCN3CCOCC3)cc2CC(=O)N([C@@H](C)CO)C[C@@H]1C | inactive: 1.01 |
| COc1ccc(S(=O)(=O)N(C)C[C@@H]2OCCCC[C@H](C)Oc3ccc(NC(=O)CCC(F)(F)F)cc3C(=O)N([C@H](C)CO)C[C@H]2C)cc1 | inactive: 1.02 |
| C[C@@H]1CN([C@@H](C)CO)C(=O)Cc2cc(NC(=O)C3CCCCC3)ccc2O[C@H]1CN(C)S(C)(=O)=O | inactive: 0.957 |
| C[C@H](CO)N1C[C@H](C)[C@H](CN(C)S(=O)(=O)c2cn(C)cn2)Oc2c(NC(=O)CCCCCC(=O)Nc3ccccc3N)cccc2C1=O | inactive: 1 |
| CNC[C@H]1OCCCC[C@@H](C)Oc2ccc(NC(=O)c3ccncc3)cc2C(=O)N([C@H](C)CO)C[C@H]1C | inactive: 0.977 |
| COc1ccc(NC(=O)Nc2ccc3c(c2)CC(=O)N([C@H](C)CO)C[C@H](C)[C@@H](CN(C)C(=O)Nc2cccc4ccccc24)O3)cc1 | inactive: 1 |
| C[C@@H]1CCCCO[C@@H](CN(C)C(=O)CCC(F)(F)F)[C@H](C)CN([C@H](C)CO)C(=O)c2cc(NS(=O)(=O)c3ccccc3)ccc2O1 | inactive: 0.994 |
| N[C@H](C(=O)O)c1cc(O)cc(O)c1 | inactive: 0.989 |
| CC[N+](CC)(CC)CCOc1cccc(OCC[N+](CC)(CC)CC)c1OCC[N+](CC)(CC)CC.[I-].[I-].[I-] | inactive: 1.15 |
| C[C@H](CO)N1C[C@H](C)[C@H](CN(C)C(=O)Nc2cccc3ccccc23)Oc2ccc(NC(=O)NC3CCCCC3)cc2CC1=O | inactive: 0.986 |
| CC(C)NC(=O)Nc1cccc2c1O[C@@H](CN(C)S(=O)(=O)c1ccc(F)cc1)[C@@H](C)CN([C@@H](C)CO)C2=O | inactive: 0.946 |
| Cc1ccc(S(=O)(=O)N(C)C[C@H]2OCCCC[C@H](C)Oc3ccc(NC(=O)Nc4c(C)noc4C)cc3C(=O)N([C@@H](C)CO)C[C@H]2C)cc1 | inactive: 0.968 |
| CN1C(=O)c2cc(NC(=O)c3ccc(F)cc3)ccc2OC[C@H]2O[C@H](CC(=O)N3CCOCC3)CC[C@H]21 | inactive: 1.02 |

| SMILES | relative growth |
| --- | --- |
| COc1ccc(S(=O)(=O)N(C)C[C@H]2OCCCC[C@@H](C)Oc3ccc(NC(=O)Nc4ccc(C(F)(F)F)cc4)cc3C(=O)N([C@H](C)CO)C[C@@H]2C)cc1 | inactive: 1.01 |
| Cc1cccc(NC(=O)Nc2ccc3c(c2)C(=O)N(C)[C@@H]2CC[C@@H](CC(=O)NCc4ccccc4Cl)O[C@@H]2CO3)c1 | inactive: 0.998 |
| C[C@@H]1ON(c2ccc(C(=O)OC(C)(C)C)cc2)[C@H](c2ccc(O)cc2)[C@H]1C(=O)N1C(=O)OC[C@H]1Cc1ccccc1 | inactive: 1.05 |
| C[C@@H]1CN([C@H](C)CO)C(=O)c2cc(NC(=O)C3CCCCC3)ccc2O[C@@H](C)CCCCO[C@@H]1CN(C)S(=O)(=O)c1ccc(F)cc1 | inactive: 0.94 |
| C[C@H]1CN([C@@H](C)CO)C(=O)c2cc(NC(=O)CCC(F)(F)F)ccc2O[C@@H]1CN(C)C(=O)Nc1cccc2ccccc12 | inactive: 1.02 |
| C[C@@H]1CN([C@H](C)CO)S(=O)(=O)c2ccc(Br)cc2O[C@@H]1CN(C)C(=O)CN1CCOCC1 | inactive: 0.886 |
| C[C@@H]1CN([C@@H](C)CO)C(=O)Cc2cc(NS(C)(=O)=O)ccc2O[C@@H]1CN(C)S(=O)(=O)c1cccs1 | inactive: 0.979 |
| CN(C)CCCNC(=O)C[C@@H]1CC[C@@H]2[C@H](COc3ccc(NC(=O)c4ccccc4F)cc3C(=O)N2C)O1 | inactive: 1.02 |
| NCC(=O)NCC(=O)O | inactive: 1.01 |
| C[C@H](CO)N1C[C@H](C)[C@@H](CN(C)Cc2ccc(Cl)c(Cl)c2)Oc2ccc(NC(=O)Cc3cn(C)c4ccccc34)cc2CC1=O | inactive: 1.03 |
| COc1ccc(NC(=O)N(C)C[C@@H]2OCc3cn(nn3)CCCC(=O)N([C@H](C)CO)C[C@H]2C)c(OC)c1 | inactive: 0.995 |
| COc1ccc(Br)cc1S(=O)(=O)NC(=O)/C=C/c1ccccc1Cc1ccc2ccccc2c1 | inactive: 0.987 |
| Cc1c(C(=O)NN2CCCCC2)nn(-c2ccc(Cl)cc2Cl)c1-c1ccc(I)cc1 | inactive: 1 |
| COc1ccc(NC(=O)Nc2ccc3c(c2)C(=O)N([C@H](C)CO)C[C@H](C)[C@@H](CN(C)Cc2ccc4c(c2)OCO4)OCCCC[C@H](C)O3)cc1 | inactive: 0.991 |
| CCc1nc2ccc(C(=O)NCCCN3CCCC3=O)cn2c1N(CC)C(=O)NCCc1ccccc1 | inactive: 0.98 |
| O=C(O)c1cc(-c2ccccc2)nc2ccccc12 | inactive: 1.11 |
| C[C@@H]1CCCCO[C@@H](CN(C)C(=O)C2CCCCC2)[C@@H](C)CN([C@@H](C)CO)C(=O)c2cc(NC(=O)Nc3ccc(C(F)(F)F)cc3)ccc2O1 | inactive: 1.02 |
| CC(C)CC#Cc1cnc2c(c1)C(=O)N([C@H](C)CO)C[C@@H](C)[C@@H](CN(C)S(=O)(=O)c1ccccc1)O2 | inactive: 1.02 |
| Cc1noc(C)c1S(=O)(=O)N(C)C[C@H]1Oc2ccc(NC(=O)Cn3cnnn3)cc2CC(=O)N([C@@H](C)CO)C[C@@H]1C | inactive: 1 |
| CN[C@H](CC(C)C)C(=O)N[C@H]1C(=O)N[C@@H](CC(N)=O)C(=O)N[C@H]2C(=O)N[C@H]3C(=O)N[C@H](C(=O)N[C@H](C(=O)O)c4cc(O)cc(O)c4-c4cc3ccc4O)[C@H](O)c3ccc(c(Cl)c3)Oc3cc2cc(c3O[C@@H]2O[C@H](CO)[C@@H](O)[C@H](O)[C@H]2O[C@H]2C[C@](C)(N)[C@H](O)[C@H](C)O2)Oc2ccc(cc2Cl)[C@H]1O | inactive: 0.749 |
